# PubChem BioAssay AID1159614 (National Center for Advancing Translational Sciences (NCATS), 2016)
# In all, about 45,000 compounds went through this assay and about 65 (0.1%) were called active. The call rests on the fitted dose curve; in most records, active means well fitted activation curve with a large enough effect; inconclusive means small, poorly fitted or top-dose-only effect; inactive means no such curve, though single readings can be large or run the other way. This is one part of the list.
# Target: Galactocerebrosidase (Homo sapiens) (UniProt P54803)
# Test: A Novel Cell-Based Assay to Identify Small Molecules for B -Galactocerebrosidase; further: nearly all actives have a fitted effect of over 65% in size; on activation: 0% is about no effect
# Details: 145M-Twi-hGALC-G270D cells (Twitcher mouse brain line with human GALC G270D), HMU-beta-Gal fluorescence, 48 h; series mostly up to 57.5 µM; activation: at the top concentration
# Outline: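 Fluorogenic HMU-b-Gal hydrolysis (0.1 mM final, pH 5.2 citrate-phosphate with 1 mg/mL sodium taurocholate; carbonate stop buffer) measures mutant GALC activity after compound treatment of live 145M-Twi Twitcher brain cells stably carrying human GALC-G270D, with wild-type GALC line alongside; activation sought.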
# Potency means the concentration at half of the fitted maximal effect.
# UniProt P54803, sequence (P54803 whole entry, looked up): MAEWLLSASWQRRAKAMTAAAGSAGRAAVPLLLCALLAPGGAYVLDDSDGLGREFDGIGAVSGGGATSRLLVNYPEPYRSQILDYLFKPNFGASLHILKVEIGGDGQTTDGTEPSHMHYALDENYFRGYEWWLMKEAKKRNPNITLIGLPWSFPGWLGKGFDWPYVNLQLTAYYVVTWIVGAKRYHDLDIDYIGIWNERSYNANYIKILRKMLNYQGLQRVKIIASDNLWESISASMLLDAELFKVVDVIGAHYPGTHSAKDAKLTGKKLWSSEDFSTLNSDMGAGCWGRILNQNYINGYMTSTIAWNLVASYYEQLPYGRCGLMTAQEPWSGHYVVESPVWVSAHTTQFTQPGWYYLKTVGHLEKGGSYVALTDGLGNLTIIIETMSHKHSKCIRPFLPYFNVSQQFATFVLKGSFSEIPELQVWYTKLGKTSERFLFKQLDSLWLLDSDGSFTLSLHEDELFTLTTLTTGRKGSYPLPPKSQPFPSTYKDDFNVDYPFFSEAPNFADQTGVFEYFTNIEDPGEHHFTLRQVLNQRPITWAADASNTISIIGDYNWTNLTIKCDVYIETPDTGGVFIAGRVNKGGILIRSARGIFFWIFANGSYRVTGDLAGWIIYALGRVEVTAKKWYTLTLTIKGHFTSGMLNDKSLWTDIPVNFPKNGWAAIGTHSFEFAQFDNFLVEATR
Compound,activation,Potency
Cc1noc(-c2ccc(N3CCCCC3C)c([N+](=O)[O-])c2)n1 (configuration not stated),inactive: -2.56%,–
CCC(=O)N1CCc2cc(CNS(=O)(=O)c3ccccc3F)ccc21,inactive: -31%,–
Cc1cc(C)cc(NS(=O)(=O)c2ccc3[nH]cc(C(=O)N4CCCCC4)c(=O)c3c2)c1,inactive: 4.04%,–
Cc1ccc(-c2noc(-c3nnn(CC(=O)Nc4ccc(C)cc4Cl)c3N)n2)cc1,inactive: -4.18%,–
Cc1ccc(-n2c(=O)c3oc4ccccc4c3n(Cc3ccccc3)c2=O)cc1C,inactive: -16.3%,–
CS(=O)(=O)c1ncc(Cl)c(C(=O)N(Cc2ccc(Cl)cc2)Cc2ccco2)n1,inactive: -11.3%,–
Cc1cccc(OCC(=O)Nc2nnc(S(=O)(=O)N3CCCCCC3)s2)c1,inactive: -9.91%,–
Cc1ccc(-n2nc(C(=O)NC(C)C)c(=O)n(C)c2=O)cc1,inactive: -15.2%,–
COc1cccc(CNC(=O)C(Cc2ccccc2)NS(=O)(=O)c2ccc3c(c2)CCN3C(C)=O)c1 (configuration not stated),inactive: -13.2%,–
CCOc1ccccc1CNC(=O)c1ccc2c(c1)N(CC)CCS2,inactive: -9%,–
COc1cc(C(=O)Nc2sc3c(c2C#N)CCCC3)c(Br)c(OC)c1OC,inactive: 6.87%,–
Cc1ccc(NC(=O)CCc2nc(-c3ccccc3F)no2)c(C)c1,inactive: -19%,–
CCOc1cc2c(cc1OCC)C(CC(=O)OC)N(C(=O)Nc1cc(C)cc(C)c1)CC2 (configuration not stated),inactive: -16.8%,–
CCOC(=O)C1CCN(S(=O)(=O)c2cc(-c3cc(C)no3)ccc2OC)CC1,inactive: -16.6%,–
O=C(COc1ccccc1)Nc1nnc2n1CCS2,inactive: -24.5%,–
CCOC(=O)c1c(C)[nH]c(C)c1S(=O)(=O)NCC(=O)Nc1cc(Cl)ccc1OC,inactive: -4.26%,–
CC(=O)c1ccc(NC(=O)COc2ccccc2-c2nc(C(C)C)no2)cc1,inactive: -15.3%,–
COc1cc(OC)cc(-c2nc3nc(C)c(CCC(=O)Nc4ccccc4)c(C)n3n2)c1,inactive: -12.9%,–
CC(=O)c1ccc(N2CCN(C(=O)Nc3cn(CC(C)C)c(=O)c4ccccc34)CC2)cc1,inactive: -17.4%,–
Cc1ccc(NC(=O)C(Cc2ccccc2)NS(=O)(=O)c2ccc3c(c2)oc(=O)n3C)cc1C (configuration not stated),inactive: -16.9%,–
CC(C)(C)C(=O)Cn1c(=O)n(CCCCCC(=O)NCc2ccccc2Cl)c(=O)c2sccc21,inactive: -39.7%,–

Compound,activation,Potency
COc1ccc(C2CC(=O)Nc3cc4c(cc32)OCO4)c(OC)c1 (configuration not stated),inactive: -34.6%,–
CCN1CCN(Cc2nc3cc(NC(=O)c4cccc([N+](=O)[O-])c4)ccc3n2CC)CC1,inactive: -17.2%,–
CCc1ccc(NC(=O)Cn2c(C(=O)OC)cc3oc(C)cc32)cc1,inactive: -6.6%,–
Cc1ccc(C)c(NC(=O)CSc2nnc(NC(=O)Nc3ccccc3)s2)c1,inactive: -9.87%,–
CCc1ccc(C2CC(=O)c3c([nH]c(C(=O)OC4CCCCCC4)c3C)C2)cc1 (configuration not stated),inactive: -23.8%,–
COc1ccc(NC(=O)CN2CCN(C3CCCCC3)C(=O)C2=O)cc1,inactive: 0.834%,–
CCCCCCC(=O)Nc1cc2nc3c(nc2cc1C)c(=O)n(C)c(=O)n3C,inactive: -12.5%,–
Cc1ccc(CCNC(=O)C(C)n2nc(C)c3c(C)n(-c4ccc(C)cc4)nc3c2=O)cc1 (configuration not stated),inactive: -41.6%,–
CCOC(=O)N1CCC(NC(=O)c2ccc3c(c2)N(Cc2ccc(F)cc2)C(=O)c2ccccc2S3=O)CC1 (configuration not stated),inactive: 2.24%,–
COc1ccc(CCNC(=O)c2nc(SCc3ccc(F)cc3)ncc2Cl)cc1OC,inactive: -13.4%,–
Cc1ccccc1OCC(=O)Nc1ccc2[nH]c(=O)sc2c1,inactive: 4.27%,–
CCOc1ccc(CC(=O)NCCc2sc(-c3cccc(F)c3)nc2C)cc1,inactive: -5.26%,–
O=C(NCCS(=O)(=O)N1CCN(c2ccc(F)cc2)CC1)c1ccccc1Br,inactive: -14%,–
CCOc1cccc2sc(NC(=O)c3ccc(S(=O)(=O)N4CCCCC4)cc3)nc12,inactive: -20.4%,–
COc1ccc(NC(=O)c2cc(=O)c3cc(C)cc(C)c3o2)cc1,inactive: -6.75%,–
Cc1nc2c(-c3ccccc3)c(C)[nH]n2c(=O)c1Cc1ccc(Br)cc1,inactive: -25.3%,–
CCOC(=O)c1c(-c2ccc(Br)cc2)csc1NC(=O)c1ccc(C(C)(C)C)cc1,inactive: 4.58%,–
CC1CCCCN1Cc1c(O)ccc2c(=O)c(-c3ccc(Cl)cc3)coc12 (configuration not stated),inactive: -8.98%,–
COc1ccc(CNC(=O)C2CCCN(C(=O)c3cnn(-c4ccc(F)cc4)c3-n3cccc3)C2)cc1 (configuration not stated),inactive: 1.35%,–
Cc1ccc(CNC(=O)c2cc(=O)c3cc(C)c(C)cc3o2)cc1,inactive: -20.4%,–
CCCS(=O)(=O)c1nc(S(=O)(=O)c2ccc(C)cc2)c(NCC(C)C)s1,inactive: -7.74%,–

Compound,activation,Potency
CC1CCN(S(=O)(=O)c2ccc3c(ccc(=O)n3CC(=O)NCc3ccccc3)c2)CC1,inactive: -14.3%,–
Cc1ccc(CCNC(=O)c2oc(=O)c3ccccc3c2-c2ccc(C)cc2)cc1,inactive: -2.2%,–
CC(CNc1nc2ccccc2c2nc(-c3ccccc3)nn12)c1ccccc1 (configuration not stated),–,active: 25.1 µM
CC(=O)Nc1cccc(NC(=O)CSc2cn(CC(=O)N3CCCC3)c3ccccc23)c1,inactive: -10.1%,–
COc1ccc(NC(=O)c2cc3c(=O)n(C)c4cc(Cl)ccc4c3s2)cc1Cl,inactive: -0.559%,–
Cc1noc2ncnc(N3CCCC(C(=O)Nc4cc(F)ccc4F)C3)c12 (configuration not stated),inactive: -12.6%,–
CCCCNC(=O)Cn1c(=O)cc(C)c2c(C)nn(-c3cccc(Cl)c3C)c21,inactive: -2.13%,–
CCc1ccc(-n2c(=O)c3c(C)c(C(=O)N(C)C)sc3n(CC(=O)Nc3cc(Cl)ccc3C)c2=O)cc1,inactive: 11.6%,–
COc1ccccc1NC(=O)C1=C(C)Nc2nc(-c3ccco3)nn2C1c1cccc(C)c1 (configuration not stated),inactive: -15.1%,–
CCOC(=O)c1c(C)c(C(=O)NCc2ccc(Cl)cc2)c(C)n1C,inactive: -12.5%,–
CCC(=O)Nc1ccc(C)cc1-c1nc2ccccc2n(CC(=O)c2ccc(C)cc2)c1=O,inactive: -12.5%,–
CC(C)(C)OC(=O)N1CCC(c2c(C(=O)NCc3ccco3)cnn2-c2ccc(F)cc2F)CC1,inactive: -0.0203%,–
Cc1ccc(Sc2c(C)nn(C(=O)c3ccc(Br)cc3)c2C)cc1,inactive: -4.2%,–
COc1ccc(Nc2ncnc3onc(C)c23)c(OC)c1,inactive: -21.3%,–
COc1ccc(Cl)cc1NC(=O)NCCc1c(C)nn(C)c1C,inactive: -12.2%,–
COc1ccc(OC)c(NC(=O)Cn2c(=O)n(Cc3nc(C)no3)c(=O)c3ccccc32)c1,inactive: -16.1%,–
CC(=O)Nc1ccc(NC(=O)c2cc(-c3cccs3)on2)cc1,inactive: -2.24%,–
O=C(CSC1=Nc2ccccc2N=C(c2ccc(F)cc2)C1)Nc1ccc(Cl)cc1,inactive: -15.1%,–
CCc1cccc(C)c1NC(=O)c1ccc2c(c1)CCN2S(=O)(=O)CC,inactive: -7.76%,–
COc1ccc(N2CCN(C(=O)C(C)n3c(=O)cc(C(F)(F)F)c4c(C)nn(C)c43)CC2)cc1 (configuration not stated),inactive: -8.76%,–
